In article PMC3419730, “NRFL-1, the C. elegans NHERF Orthologue, Interacts with Amino Acid Transporter 6 (AAT-6) for Age-Dependent Maintenance of AAT-6 on the Membrane” (PLoS ONE, 2012):
Numbering of substitutions follows the chain as printed. Names and notes keep the numbering of the source. These are yes or no findings as the source states them, for the method shown. For some of these results: In cells and extracts the contact can be indirect. Some binding calls cover weakened binding; strength is not graded here. For some of these results: Where a sequence is shown, tags or fusion partners need not be part of it. Blank lines part the entries; values can stand above or below the binder they belong to.

Key:
[1] = biological target: T1, AAT-6 C-terminus tail corresponding to residues 487–523 (two-hybrid bait) (C. elegans) (UniProt Q22397); test: two-hybrid; LexA-based GFP yeast two-hybrid (Glow'n'Grow, MoBiTec) in EGY48; AAT-6 tail in pEG202 as bait, PDZ protein as prey; reporters LEU2 (growth without leucine) and GFP
T1 sequence: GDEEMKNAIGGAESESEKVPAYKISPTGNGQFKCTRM

[2] = biological target: T2, AAT-6 C-terminus tail without PDZ binding motif (ΔTRM), two-hybrid bait (C. elegans) (UniProt Q22397); test: as above
T2 sequence: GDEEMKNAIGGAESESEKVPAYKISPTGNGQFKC

[3] = biological target: T3, GST fusion of AAT-6 C-terminus tail corresponding to residues 487–523 (C. elegans) (UniProt Q22397); test: condition: 5 µg NRFL-1 protein with 2 µg GST fusion protein; pull-down; GST pull-down: 2 µg GST fusion protein and 5 µg recombinant 3×FLAG-NRFL-1, overnight at 4°C in 50 mM Tris pH 7.4, 150 mM NaCl, 5 mM EDTA, 0.1% NP-40; blot with anti-FLAG; both purified
T3 sequence: T1 sequence

[4] = biological target: T4, AAT-6(1–517)-4×G::GFP::4×G-FKCTRM (C. elegans) (UniProt Q22397); test: co-IP; worm lysate with 0.5% Triton X-100, 100 mM NaCl and phosphatase inhibitors; anti-GFP mouse monoclonal antibody and Protein G; blot with anti-NRFL-1
T4 sequence: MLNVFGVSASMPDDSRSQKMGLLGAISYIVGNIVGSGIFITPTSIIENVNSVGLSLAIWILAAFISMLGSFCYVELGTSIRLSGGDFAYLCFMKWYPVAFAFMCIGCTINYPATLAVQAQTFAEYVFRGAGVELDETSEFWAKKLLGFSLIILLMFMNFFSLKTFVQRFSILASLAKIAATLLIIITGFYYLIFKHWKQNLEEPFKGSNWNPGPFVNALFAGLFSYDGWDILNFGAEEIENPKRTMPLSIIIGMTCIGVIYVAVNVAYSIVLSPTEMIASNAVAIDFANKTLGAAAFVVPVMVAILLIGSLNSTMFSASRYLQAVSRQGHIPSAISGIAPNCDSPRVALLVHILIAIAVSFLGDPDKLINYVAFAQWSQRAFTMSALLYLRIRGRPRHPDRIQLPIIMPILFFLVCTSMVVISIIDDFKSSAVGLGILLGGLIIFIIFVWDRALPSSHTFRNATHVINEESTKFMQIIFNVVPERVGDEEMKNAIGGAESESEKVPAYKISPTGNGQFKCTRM

[5] = biological target: T5, GST fusion of AAT-6 C-terminus tail without PDZ binding motif (C. elegans) (UniProt Q22397); test: condition: 5 µg NRFL-1 protein with 2 µg GST fusion protein; pull-down; GST pull-down: 2 µg GST fusion protein and 5 µg recombinant 3×FLAG-NRFL-1, overnight at 4°C in 50 mM Tris pH 7.4, 150 mM NaCl, 5 mM EDTA, 0.1% NP-40; blot with anti-FLAG; both purified
T5 sequence: T2 sequence

binding [1]: binds
binding [2]: no binding
B1: NRFL-1 (C01F6.6a), full-length, two-hybrid prey (protein, UniProt G5EDM4 1-467)
chain: MVHIPSDVTPPRLCVVEKLNGENEYGYNLHAEKGRGQFVGTVDPDSPAERGGLITGDRIFAVNGHSIIGENHKKVVERIKANPNRCEMLVISEEGAKWYNENNVQITLDLPNIERVSPMSKETPVFVPPPPPPTDAMPYLPRLAELNKGTPDQEFGFNLHAERGRGHFIGTVDAGGIGEKAGLEAGQRIVGVNGQLIYPTTGHKEVVALIKKDTMKTTLLVASEDVDKYHKDHNIAYSWDNVERVDTRPVINVETHHHHEEVSVPKSNGYDVPPLNPHSIQVNEEREISKMTTTTRTETITNSNSAYQYKESSTAYDAYATPPVDSNDLMDEVFGRVNLPGVTMSSHTEVLPPTDDISSVSSLSSHRESAVDVPVSHQYVPSYATESHQKHEQHSQTHHHHHQHQQPSPLSNGSSHGYAASSTSGYDDDDIYHLSAREARERLRMKNRKHHLHEMSLNEKYQLVSNM

binding [4]: binds
B3: endogenous NRFL-1 of C. elegans (protein, UniProt G5EDM4 1-467)
chain: B1 chain
modifications: phosphorylated in vivo (sites not given)

Second part, the binder before the results:

B2: 3×FLAG-NRFL-1 with PDZ I/PDZ II both mutated (G26A/Y27A and E154A/F155A) (protein, UniProt G5EDM4 1-467)
chain: B1 chain with G26A, Y27A, E154A, F155A
binding [3]: no binding

B4: 3×FLAG-NRFL-1 (wild type) (protein, UniProt G5EDM4 1-467)
chain: B1 chain
binding [5]: no binding

B5: T26E3.3a (par-6), full-length, two-hybrid construct (protein, UniProt Q9NAN2 1-309)
chain: MSYNGSYHQNHHSTLQVKSKFDSEWRRFSIPMHSASGVSYDGFRSLVEKLHHLESVQFTLCYNSTGGDLLPITNDDNLRKSFESARPLLRLLIQRRGESWEEKYGYGTDSDKRWKGISSLMAQKPPKRSYSISNPEDFRQVSAIIDVDIVPEAHRRVRLCKHGQERPLGFYIRDGTSVRVTERGVVKVSGIFISRLVDGGLAESTGLLGVNDEVLEVNGIEVLGKTLDQVTDMMVANAHNLIITVKPANQRNTLSRGPSQQGTPNASEMSAATAAATGGIQRPMKMNGSSDGSYHPKQHDANDSDSGED
binding [1]: no binding

B6: C25F6.2a (dlg-1), full-length, two-hybrid prey (protein, UniProt G5ECY0 1-967)
chain: MSHESSEKAHKAIENVEDYCQTLTRHGNEELRTNLERVITTFKSNLMHSLLDIHDLYEQTLLSERKSDAEKNMEVRRVIERLEGGPHSYNSRPAATTSTSNYNLSSTTPLISDLRDRGGFSYLNGGGLGNGLGNGLGNGLLSSPYNSSSTHYLHERQRQTSHDGTWRETTTRTVDTPSGLERRVVEHTGVIDDHGRKWELENIVLEKGHTGLGFSITGGMDQPTEDGDTSIYVTNIIEGGAALADGRMRKNDIITAVNNTNCENVKHEVAVNALKSSGNVVSLSLKRRKDEAFLPIGGNFGGSTSYLRSGVTPSVSAGNLQHAIHSPSAPIHPPPPPPVHHGSLSQLSVGQYRSTRPNTSVIDLVKGARGLGFSIAGGQGNEHVKGDTDIYVTKIIEEGAAELDGRLRVGDKILEVDHHSLINTTHENAVNVLKNTGNRVRLLIQQGTGAIFNDSASQQFMPTTPILRPSSVQDYNRSQMGSQSHLSYGGPLNTSYSSQAPIAIPLEPRPVQLVKGQNGLGFNIVGGEDNEPIYISFVLPGGVADLSGNVKTGDVLLEVNGVVLRNATHKEAAEALRNAGNPVYLTLQYRPQEYQIFESKIEKLRNDVIAQSRMGTLSRKSEYVRALFDYDPSRENSVAPHRSMGFNYGDILHIINSSDDEWWTARKVHENGEETAEGVIPSKKRVEKRERLRRKQVNFNSGSQSLGRNSSTTGLENRRGSRSQLSFSRKFPFVKSTDRLNDLNEESSNVAEEPVWSYQAVEQQAINYVRPVIILGALKDRINDELVNRDPSKFSSCVPHTSRPPREGEVNGRDYYFVNKHNMEEDVKNNLFIEAGQFQNNLYGTSIQSVRDVANQGRHCILDVSGNAIRRLQSNANIQPISIFIKPSSAQQILELDSQLATNRQDDRAMSGEEAQAQYSRCHRIEQTFGDLFTQEISNVHSANDVLSKVYSIISRESQTPIWVPRH
binding [1]: no binding
